The list shows a part of the results.
T1: UNK ZnF1-3 (human, UniProt Q9C0B0 31-174)
T1 sequence: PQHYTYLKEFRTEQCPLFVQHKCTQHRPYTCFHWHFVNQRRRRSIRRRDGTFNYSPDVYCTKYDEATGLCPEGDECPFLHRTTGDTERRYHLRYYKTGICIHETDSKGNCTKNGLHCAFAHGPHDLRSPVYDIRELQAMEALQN

B1: chr2:73037555:73037556:-_ENSMUSG00000027108_ENSMUST00000028517|mus_hu|FALSE|FALSE (ssRNA)
RNA: GGGAGUUCUACAGUCCGACGAUCAAAAAGCAUUCCCCAGGCCCUGCCCAUUGUGAGCUCCUUUCACAAGGCCAGCAAUAUCCACCACAUUUAGAAAGGCAGGAAUUUUGCUUGCUGGUUUGUGGUAUUGACAAAGAAAGUCAACAACAGAGGAUUGAGCAUCA
B2: chr18:58099821:58099822:+_ENSMUSG00000024597_ENSMUST00000115366|mus_mus|FALSE|FALSE (ssRNA)
RNA: GGGAGUUCUACAGUCCGACGAUCAUUUUCUUUUUUUGGCUUGGUGUUGAUAUCUCCAAGGACCAUGAUAUCAGAGAAGUCUAUCCGGAAUUUACUCAAUAAAGUAGCCAUCGCUCUCCGGUCAUGGUCUAUUCUGUUUAUUUUCAACAGAGGAUUGAGCAUCA
B3: chr1:122009976:122009977:-_ENSMUSG00000026385_ENSMUST00000027634|mus_hu|motif|central (ssRNA)
RNA: GGGAGUUCUACAGUCCGACGAUCUUUAAUUGAUUUCAGAUAAAAACUACUCAAGGAAAGUCAGUAAUCGUUUUAGCCCCGGAUCUGUUAGAGCCGUAUGGUGAGCAGCCUUGAGUAGCUGGUUUAACUGGUUAUUUUCCCGAACAACAGAGGAUUGAGCAUCA
B4: chr1:95363388:95363389:-_ENSG00000117519_ENST00000538964|hu_hu|motif|central (ssRNA)
RNA: GGGAGUUCUACAGUCCGACGAUCUCUGGGGUAGUCAUCCUGGUACUCGCCAUGAUACUCAUCAGGGUAUUCUGCCUGAUAAUCACGGUCACUGAUUUCCGAACCAUUUGUUCCUGUUCCUUGGCUUCCGUUGUGAAUGACAGGCAACAGAGGAUUGAGCAUCA
B5: chr9:15470827:15470828:-_ENSG00000164985_ENST00000397519|hu_mus|FALSE|FALSE (ssRNA)
RNA: GGGAGUUCUACAGUCCGACGAUCGUCAAGGGCACACCUGCCCCAGUUUUCAAGAACGUAAUAGCUACUCCAGUUUAAUACCUAGCUUCAAAACAAAAUGAUUUUCAUAUUCUCUAAGUGAGAUAAUGUACAGUCGCCGUCUUCCAACAGAGGAUUGAGCAUCA
B6: chr14:32562060:32562061:+_ENSG00000100852_ENST00000539826|hu_mus|FALSE|FALSE (ssRNA)
RNA: GGGAGUUCUACAGUCCGACGAUCCUUUAUUUGUGAUUCAUUAAAUUUACGAGGAUAUGUACCAGUAGGUACGUCUACAAAAGGACACUGCAAUUUGUUGGCCAACUGCUGACCCUGGUGCCUGAGAAUUGGUAGAUUUUUACUCAACAGAGGAUUGAGCAUCA
B7: 94682084_94682457_2662_CDS_ENSMUSG00000038902_ENSMUST00000107270|mouse|control|control (ssRNA)
RNA: GGGAGUUCUACAGUCCGACGAUCCAUCCAACUGAGCCCCCGUGGUAAGAUGUUGCUAGAUCUGUGGGAGGGGUUGAACACUAAAUGCUUGGCCAUCGCAUCUCCCACGGAGGUAGCAAAGGUACACGAAGUGCAGGCCAGCUUCAACAGAGGAUUGAGCAUCA
B8: chr8:104063288:104063289:+_ENSG00000155097_ENST00000518738|hu_hu|FALSE|FALSE (ssRNA)
RNA: GGGAGUUCUACAGUCCGACGAUCUAUAUAAGUAACCAAGUCCACUCCAUUAGCCAACAGAUUCUCUUGAACUUUGUCUUUGCUAUCUUCCAAUACAUCAGCCAUGUAUUGAGCUACUUUCUUAACCACUCCUUCUACAAAUGCCAACAGAGGAUUGAGCAUCA
B9: 87966449_87966569_3205_CDS_ENSG00000188994_ENST00000369577|human|control|control (ssRNA)
RNA: GGGAGUUCUACAGUCCGACGAUCAACAAAUGCAAUACUUUCUAAUGUCUUAAGAGGUAAAUUAUAAAGAUUGGAUGAUGUUUUAACAUUAUCUCCACAUUCAAAUUUGGAAGUUGGUAAAUUGUUUUGAAAUGCUGCCUGAUUCAACAGAGGAUUGAGCAUCA
B10: chr17:38556828:38556829:-_ENSG00000131747_ENST00000423485|hu_mus|motif|central (ssRNA)
RNA: GGGAGUUCUACAGUCCGACGAUCAGUCCACGUUCGGAUGGGAAGCUCUGAGAUUUCAAUGGUUGUAGAAUCCAGAAUAGCGGCUUCUCCAUUAAUCACAUACUGAUUUGAAGCCAGUUCUUCAAUAGUACCUUUGAAAUUCUUCAACAGAGGAUUGAGCAUCA
B11: 60976484_60980176_644_CDS_ENSMUSG00000042506_ENSMUST00000041683|mouse|control|control (ssRNA)
RNA: GGGAGUUCUACAGUCCGACGAUCCAGUCCACGCAGACCUAUGGUACAAUUGGAGGUGAUCUUCCGCCUCUUUGGGUUAUGCUUCAGCAGUUCCAGCUCCCGUUUAGUUGGUUCCCAAGUUGAAAACUUCUCUCCAACACCUUGCAACAGAGGAUUGAGCAUCA
B12: chr6:38652254:38652255:-_ENSG00000124767_ENST00000373365|hu_hu|hu_hu_hu_mus_False|78_88 (ssRNA)
RNA: GGGAGUUCUACAGUCCGACGAUCCGAGAACUUCAUAGCAGGGAAGUCACAUUUUUGGAUUAGCGUCAGUCCAAGAACCCUCGUAUAAAAAUCCAGGGACUUCUUAGGAUCCUUAAUUCUUAGCAUCGUUUGCUGCAGUAGAAACAACAGAGGAUUGAGCAUCA
B13: chr22:19452774:19452775:-_ENSG00000070010_ENST00000399523|hu_hu|hu_hu_hu_mus_False|78_98 (ssRNA)
RNA: GGGAGUUCUACAGUCCGACGAUCCUUCUCAUUGUAGUUGAUGGCAAUCACAUCUCCGGUGGUCAGACAGGCGAAGUUUCUCAAUGCAUUUUCUAAUACCGCUUUAGGGUUGGUAAUAUCCAGGAAGUCUGGGCUCUGAGGCUGCAACAGAGGAUUGAGCAUCA
B14: chr7:137662931:137662932:-_ENSMUSG00000030850_ENSMUST00000033139|mus_mus|FALSE|FALSE (ssRNA)
RNA: GGGAGUUCUACAGUCCGACGAUCAGCGACUGCCCAACUUGUUCUUGCAGUAGCCACACUGGAAGGAGGUCUGGCCCUCAAAAUACUCUACAAGGCUAGGUGAAGGCGCGCUCCAAGAAGCCAUGUCCGCGACCCCGCCGCCGCCAACAGAGGAUUGAGCAUCA
B15: 7411140_7411260_310_5pUTR_ENSMUSG00000040021_ENSMUST00000165952|mouse|control|control (ssRNA)
RNA: GGGAGUUCUACAGUCCGACGAUCGCAUCUAUAUGUGGCCCCUGCAAAGCACUUCUUAAGGAGCUAACUCAAAGACUCAGAGCUUCUUCUGAGCCAAGGUGAAAGGGGAAGUCCCAGGAAUGUUAAAAUCCUUUACAGUGGAAGCAACAGAGGAUUGAGCAUCA
B16: 165859584_165865433_606_CDS_ENSG00000143179_ENST00000367879|human|control|control (ssRNA)
RNA: GGGAGUUCUACAGUCCGACGAUCCUCCUUCCGGGAAUGGGAGACAAAGUCAUACACGGGGAUCUGGACUGUUUUCCCUUCAGUGAUUUCUUUGAGUGUUUUGAGAAUGAGUUCAUUGUCAAAGGCAUCCGGGUGGUCAAAGUUCAACAGAGGAUUGAGCAUCA
B17: chr12:16048344:16048345:+_ENSG00000023734_ENST00000419869|hu_hu|hu_hu_hu_mus_True|98_98 (ssRNA)
RNA: GGGAGUUCUACAGUCCGACGAUCAGAUCGUCCAUAAGUUAUAACCAAAAUCUCUCCUUCAGGAAUAUACUCCAUGCUGCUAACAGACAUAUUAAAAUUCAGAGAUUUCACUUCUGUCAUUGUGGCAUGAUCCCAGAGCCGAACCAACAGAGGAUUGAGCAUCA
B18: chr11:100882373:100882374:+_ENSMUSG00000019302_ENSMUST00000044721|mus_hu|motif|central (ssRNA)
RNA: GGGAGUUCUACAGUCCGACGAUCUUCCUGGUUUGUGUUGAUUUCCUUCAGUUCAUUUUCAAUCUUCUCAAAAUUGGCCUCGGAGUCAAUCAUGUCCCGGGGGAAGGGAACCUCUGGGUUUUCACCGGUGUCCAUAAUCGGAAUCAACAGAGGAUUGAGCAUCA
B19: chr2:217001844:217001845:+_ENSG00000079246_ENST00000392132|hu_hu|hu_hu_hu_mus_False|1_68 (ssRNA)
RNA: GGGAGUUCUACAGUCCGACGAUCACCAACUUGAGGAUUAGAUCUUUUGUCAUAAGCAUAUCGGACGAUGGCCACCAUGUUUAACUCAUCCAAAGCAUGAACGAGAGAGGAAAGGGCAACAGCUGCCGCCUCAUCAUCUCUUGCCAACAGAGGAUUGAGCAUCA
B20: chr14:28285125:28285126:+_ENSMUSG00000040651_ENSMUST00000022450|mus_hu|FALSE|FALSE (ssRNA)
RNA: GGGAGUUCUACAGUCCGACGAUCCUCGGAAAGCCGUUUCAUCUUCUCUUGUGUUGAAAAGAUAGGUGUGGAAACUGUACUGACAUAUGAAACAUUCUUUUGCUUCAAAAUCUCUUCUAUCUUCCUAGAAAAGAGAUUGUACUCCAACAGAGGAUUGAGCAUCA
B21: chr11:29607950:29607951:+_ENSMUSG00000020458_ENSMUST00000102843|mus_mus|motif|central (ssRNA)
RNA: GGGAGUUCUACAGUCCGACGAUCGGGUGAGGAAUCAUCCACGAGCUCACAGUGAUCAGGCACCGACUUCUCAAAUUUUGCGGUUUCUGAAUAAUUAGAGAACUCUGGACUUGGCUCAGUGGAGAGCUUUGUUUCUUUAAUUAACAACAGAGGAUUGAGCAUCA
B22: chr1:23374948:23374949:-_ENSMUSG00000026158_ENSMUST00000027343|mus_hu|FALSE|FALSE (ssRNA)
RNA: GGGAGUUCUACAGUCCGACGAUCCCAAAUCCUAAUACUCACAGAACACUAGGAAAGCAAAAACUGGCAUAUUAUGGGAACUAAAAAUGAGAAAGUGUUCCAUACUAUACUUAUUGGAACACAAUGUACAACAAAAGUGCUACUCAACAGAGGAUUGAGCAUCA

Each binder was assayed against T1, UNK ZnF1-3 (assay: nsRBNS (natural sequence RNA bind-n-seq); RBNS binding buffer (assumed for nsRBNS): 25 mM Tris pH 7.5, 150 mM KCl, 3 mM MgCl2, 0.01% Triton X-100, 500 ug/ml BSA, 20 U/ml SUPERase-In, 4 C; UNK is unkempt and MSI1 is Musashi-1; names of the RNAs are library labels; protein concentration not given here; high values mean tight binding).
B1 gave a binding signal of 0.869 enrichment R. Binder B2 has a binding signal of 0.451 enrichment R. Work on B3 yielded a binding signal of 0.739 enrichment R. In the case of B4, the binding signal is reported as 0.456 enrichment R. B5 was tested, and the binding signal was 0.818 enrichment R. For B6, the binding signal was 1.12 enrichment R. B7 gave a binding signal of 0.777 enrichment R. B8 showed a binding signal of 0.974 enrichment R. In the case of B9, the binding signal is reported as 0.757 enrichment R. For B10, the binding signal was 0.838 enrichment R. B11 was tested, and the binding signal was 0.493 enrichment R. For B12, the binding signal was 1.3 enrichment R. Binder B13 has a binding signal of 1.04 enrichment R. With B14 the binding signal was 0.96 enrichment R. For B15, the binding signal was 1.31 enrichment R. Work on B16 yielded a binding signal of 0.898 enrichment R. Work on B17 yielded a binding signal of 1.32 enrichment R. B18 gave a binding signal of 0.619 enrichment R. B19 was tested, and the binding signal was 1.5 enrichment R. B20 gave a binding signal of 0.681 enrichment R. Work on B21 yielded a binding signal of 0.663 enrichment R. With B22 the binding signal was 0.994 enrichment R.

Reference: PMC12136788
